Measurements reported in a compilation of properties of binary mixtures (doi:10.1016/j.jcis.2008.02.039).
Some of these densities may be calculated back from excess volumes.

Assay: xn = mol fraction of the nth substance listed
Details: 101 kPa

CCCCO + CCCCCCOC[n+]1ccn(C)c1.F[B-](F)(F)F
mass density (318.15 K, x1 = 1): 789.7 kg/m3

COS(=O)(=O)[O-].Cn1cc[n+](C)c1 + CO
mass density (298.15 K, x2 = 0): 1329 kg/m3 | mass density (298.15 K, x2 = 0.259): 1288.1 kg/m3 | mass density (298.15 K, x2 = 0.3854): 1260.5 kg/m3 | mass density (298.15 K, x2 = 0.5214): 1224.1 kg/m3 | mass density (298.15 K, x2 = 0.7353): 1125.1 kg/m3

CCCCCCOC[n+]1ccn(C)c1.F[B-](F)(F)F + CO
mass density (308.15 K, x1 = 0.0032): 772.9 kg/m3 | mass density (308.15 K, x1 = 0.0037): 773.4 kg/m3 | mass density (318.15 K, x1 = 0.0026): 765.3 kg/m3 | mass density (318.15 K, x1 = 0.0036): 766.2 kg/m3 | mass density (318.15 K, x1 = 0.0044): 766.8 kg/m3

CCCC[n+]1ccn(C)c1.COS(=O)(=O)[O-] + CCCCO
mass density (298.15 K, x2 = 0.0918): 1195.7 kg/m3 | mass density (298.15 K, x2 = 0.2232): 1167.6 kg/m3 | mass density (298.15 K, x2 = 0.3233): 1142.5 kg/m3 | mass density (298.15 K, x2 = 0.4882): 1093.2 kg/m3 | mass density (298.15 K, x2 = 0.6593): 1026.8 kg/m3 | mass density (298.15 K, x2 = 0.8547): 920.8 kg/m3

CCO + COS(=O)(=O)[O-].Cn1cc[n+](C)c1
mass density (298.15 K, x1 = 1): 784.8 kg/m3

COS(=O)(=O)[O-].Cn1cc[n+](C)c1 + CCCCO
mass density (298.15 K, x2 = 0.0228): 1325.6 kg/m3 | mass density (298.15 K, x2 = 0.0339): 1322.9 kg/m3 | mass density (298.15 K, x2 = 0.1189): 1299.4 kg/m3 | mass density (298.15 K, x2 = 0.2123): 1268.1 kg/m3 | mass density (298.15 K, x2 = 0.2828): 1241.4 kg/m3 | mass density (298.15 K, x2 = 0.4049): 1189.5 kg/m3 | mass density (298.15 K, x2 = 0.4657): 1161.1 kg/m3 | mass density (298.15 K, x2 = 0.7593): 996.2 kg/m3 | mass density (298.15 K, x2 = 0.8788): 911.2 kg/m3

CO + CCCCCCOC[n+]1ccn(C)c1.F[B-](F)(F)F
mass density (308.15 K, x1 = 1): 771.3 kg/m3

CO + COS(=O)(=O)[O-].Cn1cc[n+](C)c1
mass density (298.15 K, x1 = 1): 785.3 kg/m3

CCCC[n+]1ccn(C)c1.COS(=O)(=O)[O-] + CO
mass density (298.15 K, x2 = 0.1826): 1192.8 kg/m3 | mass density (298.15 K, x2 = 0.3515): 1169.5 kg/m3 | mass density (298.15 K, x2 = 0.4798): 1149.4 kg/m3 | mass density (298.15 K, x2 = 0.6308): 1114.1 kg/m3 | mass density (298.15 K, x2 = 0.7487): 1064.7 kg/m3 | mass density (298.15 K, x2 = 0.9307): 911.6 kg/m3

CCCCCCOCn1cc[n+](COCCCCCC)c1.F[B-](F)(F)F + CCCCO
mass density (308.15 K, x1 = 0.0012): 799.8 kg/m3 | mass density (308.15 K, x1 = 0.0027): 803 kg/m3 | mass density (308.15 K, x1 = 0.0038): 804.5 kg/m3 | mass density (318.15 K, x1 = 0.0016): 790.5 kg/m3 | mass density (318.15 K, x1 = 0.0028): 792.1 kg/m3

CCCCO + COS(=O)(=O)[O-].Cn1cc[n+](C)c1
mass density (298.15 K, x1 = 1): 805.6 kg/m3

CCCCCCCCO + CCCCCC[N+](C)(C)CCO.[Br-]
mass density (298.15 K, x1 = 1): 822.6 kg/m3

CCCCCC[N+](C)(C)CCO.[Br-] + CCCCCCCCO
mass density (298.15 K, x1 = 0.0002): 824.5 kg/m3 | mass density (298.15 K, x1 = 0.0004): 826.8 kg/m3 | mass density (298.15 K, x1 = 0.0008): 828.7 kg/m3

CCCCCCCCOS(=O)(=O)[O-].CCCC[n+]1ccn(C)c1 + CO
mass density (298.15 K, x2 = 0): 1068 kg/m3 | mass density (298.15 K, x2 = 0.1583): 1063.2 kg/m3 | mass density (298.15 K, x2 = 0.341): 1056.2 kg/m3 | mass density (298.15 K, x2 = 0.5269): 1037.8 kg/m3 | mass density (298.15 K, x2 = 0.7108): 1013.6 kg/m3 | mass density (298.15 K, x2 = 0.8183): 981 kg/m3

CCCCCCOC[n+]1ccn(C)c1.F[B-](F)(F)F + CCCCCCO
mass density (308.15 K, x1 = 0.0061): 812.2 kg/m3 | mass density (318.15 K, x1 = 0.0061): 803.1 kg/m3

CCCCCCO + CCCCCCOC[n+]1ccn(C)c1.F[B-](F)(F)F
mass density (308.15 K, x1 = 1): 808.1 kg/m3

CCCC[n+]1ccn(C)c1.COS(=O)(=O)[O-] + CCO
mass density (298.15 K, x2 = 0.2242): 1183.8 kg/m3 | mass density (298.15 K, x2 = 0.3295): 1164.5 kg/m3 | mass density (298.15 K, x2 = 0.5521): 1109.9 kg/m3 | mass density (298.15 K, x2 = 0.6827): 1060.3 kg/m3 | mass density (298.15 K, x2 = 0.82): 980.3 kg/m3

CCCCCCOCn1cc[n+](COCCCCCC)c1.F[B-](F)(F)F + CCCCCCO
mass density (308.15 K, x1 = 0.002): 809.5 kg/m3 | mass density (308.15 K, x1 = 0.0055): 812.3 kg/m3 | mass density (318.15 K, x1 = 0.0034): 802 kg/m3 | mass density (318.15 K, x1 = 0.0048): 803.6 kg/m3 | mass density (318.15 K, x1 = 0.0061): 804.8 kg/m3

CCCCCCOCn1cc[n+](COCCCCCC)c1.F[B-](F)(F)F + CO
mass density (308.15 K, x1 = 0.0009): 772 kg/m3 | mass density (308.15 K, x1 = 0.0019): 774.1 kg/m3 | mass density (318.15 K, x1 = 0.0007): 766.9 kg/m3 | mass density (318.15 K, x1 = 0.0012): 767 kg/m3 | mass density (318.15 K, x1 = 0.0019): 767.8 kg/m3

CCCCCCCCOS(=O)(=O)[O-].CCCC[n+]1ccn(C)c1 + CCCCO
mass density (298.15 K, x2 = 0.0798): 1062 kg/m3 | mass density (298.15 K, x2 = 0.151): 1055.6 kg/m3 | mass density (298.15 K, x2 = 0.3849): 1028.4 kg/m3 | mass density (298.15 K, x2 = 0.5569): 1000.2 kg/m3 | mass density (298.15 K, x2 = 0.697): 966.2 kg/m3 | mass density (298.15 K, x2 = 0.839): 913.3 kg/m3

COS(=O)(=O)[O-].Cn1cc[n+](C)c1 + CCO
mass density (298.15 K, x2 = 0.0297): 1326.1 kg/m3 | mass density (298.15 K, x2 = 0.1089): 1312.7 kg/m3 | mass density (298.15 K, x2 = 0.2821): 1271.6 kg/m3 | mass density (298.15 K, x2 = 0.3567): 1249.1 kg/m3 | mass density (298.15 K, x2 = 0.5312): 1182.5 kg/m3 | mass density (298.15 K, x2 = 0.6742): 1106.8 kg/m3 | mass density (298.15 K, x2 = 0.8628): 959.2 kg/m3

CCCCCCOC[n+]1ccn(C)c1.F[B-](F)(F)F + CCCCO
mass density (308.15 K, x1 = 0.0014): 798.2 kg/m3 | mass density (308.15 K, x1 = 0.004): 799.9 kg/m3 | mass density (318.15 K, x1 = 0.004): 791.6 kg/m3 | mass density (318.15 K, x1 = 0.0046): 792.2 kg/m3 | mass density (318.15 K, x1 = 0.0064): 793.8 kg/m3
